Data taken from PubChem BioAssay AID1458 (National Center for Advancing Translational Sciences (NCATS), 2008).
The whole screen tested about 210,000 compounds, of which about 5,900 (2.8%) were called active. This list was built around the results that the source calls inconclusive (neither active nor inactive); the mix of calls is not that of the screen. Calls come from the whole dose curve; as a rule, active = well fitted activation curve with a large enough effect; inconclusive = small, poorly fitted or top-dose-only effect; inactive = no such curve, though single readings can be large or run the other way. A potency beside an inconclusive call is a rough fit, not a confirmed value.

Test: qHTS Assay for Enhancers of SMN2 Splice Variant Expression; note: nearly all actives have a fitted effect of over 55% in size; for activity change, positive = activation: % of control where 0% means no effect
Conditions: HEK293 SMN2-luciferase splicing reporter, luminescence, 30-36 h; activity change, positive = activation: at 46.1 µM (top of the series)
Procedure, shortened: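 qHTS luciferase splicing reporter: luminescence rises when SMN2 exon 7 is included in transfected HEK293 cells. Compound exposure lasted 30-36 h at 37C, with 4.5 mM final sodium butyrate as control, followed by a ONE-Glo read.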
Potency is the fitted concentration of half-maximal effect; tags give direction and shape of the fitted curve.

Compound | Potency | activity change, positive = activation
COc1ccc(N)c2c1C(=O)c1ccccc1C2=O | inconclusive: 11.2 µM [activator, partial curve] | 
O=c1ccnc(NCCc2ccccc2)[nH]1 | inconclusive: 14.1 µM [activator, single point] | 
CCOc1ccc(OCc2ccc(C(=O)O)o2)cc1 | active: 0.891 µM | 
O=C(c1ccc2c(c1)N(Cc1ccc(F)cc1)C(=O)c1ccccc1S2=O)N1CCC(Cc2ccccc2)CC1 (configuration not stated) |  | inactive: -50.8%
Cn1cccc1C(=O)C(=O)Nc1cccc(Cl)c1Cl | active: 25.1 µM | 
CC(C)C(=O)Nc1cccc(NC(=O)c2cccc(Br)c2)c1 | inconclusive: 8.91 µM [activator, partial curve] | 
C=CCn1c(SCC(=O)Nc2nnc(C)s2)nnc1-c1cccnc1 |  | inactive: 22.7%
O=C(N/N=C/c1ccc(Cl)c([N+](=O)[O-])c1)c1cc(-c2ccccc2)nc2ccccc12 |  | inactive: -33.8%
Cc1nc(Nc2ccc(Cl)cc2Cl)sc1C(=O)Nc1ccccc1 |  | inactive: -12.2%
Cc1nc2ccccn2c1C(=O)N/N=C/c1ccccc1[N+](=O)[O-] |  | inactive: 9.78%
CCCC(=O)Nc1nc(C)c(-c2csc(Nc3ccc(Cl)cc3)n2)s1 | inconclusive: 35.5 µM [activator, single point] | 
C=C(C)CSc1nc2sc3c(c2c(=O)n1-c1ccccc1)CC(C(C)C)OC3 (configuration not stated) |  | inactive: -2.21%
NC(=O)C1(N2CCCCC2)CCN(C(=O)Nc2ccc(F)cc2)CC1 |  | inactive: -2.73%
CCC(=O)NC(=S)Nc1ccc(S(=O)(=O)NC(C)=O)cc1 | inconclusive: 12.6 µM [activator, single point] | 
O=C(NCc1ccc(F)cc1)c1ccc2nc(N3CCCCC3)sc2c1 | active: 4.47 µM | 
CC1(C)Cc2c(sc(NC(=O)c3ccccc3)c2C(=O)O)CO1 | inconclusive: 7.08 µM [activator, partial curve] | 
c1nnnn1C12CC3CC(CC(C3)C1)C2 | inconclusive: 7.08 µM [activator, full curve, poor fit] | 
O=C(C1CCC1)N1CCc2cc(S(=O)(=O)N3CCN(c4ccccn4)CC3)ccc21 |  | inactive: -40.5%
O=C(NC(=S)Nc1nc2ccc(F)cc2s1)c1ccco1 | active: 10 µM | 
CCOC(=O)c1nnc(-c2ccccc2)nc1Sc1ccccc1Cl |  | inactive: -14.4%
O=C(Nc1ccncc1)C1CCN(S(=O)(=O)c2cccs2)CC1 |  | inactive: -14.4%
Nc1nc2ccccc2n1C(=O)c1ccccc1 | active: 1.58 µM | 
CN(C)CCCn1c(N)c(C#N)c2nc(C#N)c(C#N)nc21 | inconclusive: 35.5 µM [activator, single point] | 
Cc1ccc(C)c(NC(=O)CCC(=O)N/N=C/c2ccc[nH]2)c1 | inconclusive: 25.1 µM [activator, single point] | 
O=C(N/N=C/c1cn(-c2cccs2)nc1-c1ccccc1)c1ccccc1Br | inconclusive: 35.5 µM [activator, single point] | 
CCN(Cc1ccccc1)C(=O)c1nn(-c2ccc(OC)cc2)c(=O)c2c1c1ccccc1n2C |  | inactive: -0.327%

Compound | Potency | activity change, positive = activation
C[n+]1c(/C=C/c2ccc3c(c2)OCO3)ccc2ccccc21 |  | inactive: -95%
CSc1nnc(-c2ccccc2N=Cc2c(C)[nH]n(-c3ccc4ccccc4c3)c2=O)c(=O)[nH]1 | inconclusive: 11.2 µM [activator, partial curve] | 
CC1CCc2c(C(=O)Nc3ccc(OC(F)(F)F)cc3)csc2C1 (configuration not stated) |  | inactive: -0.073%
COc1ccc(-c2cc(=O)oc3c(C)c(OC(=O)c4cccs4)ccc23)cc1 |  | inactive: -18.1%
CCc1ccc(C2CC(=O)c3c([nH]c(C(=O)OCCOc4ccccc4)c3C)C2)cc1 (configuration not stated) |  | inactive: -10.3%
CC1(C)Cc2nc3sc(C(=O)NCCCO)c(N)c3cc2CS1 | active: 14.1 µM | 
COc1ccc(C(=O)Nc2nnc(C)s2)cc1 | active: 11.2 µM | 
C/C(=N\NC(=O)CNC(=O)c1ccncc1)c1ccc(C)cc1 | inconclusive: 0.0891 µM [activator, full curve, poor fit] | 
COc1cccc(NC(=O)c2cccc(OC)c2OC)c1 | active: 15.8 µM | 
CCCCNC(=O)c1cccc(C(=O)NCCCC)c1 | inconclusive: 1.41 µM [activator, full curve, poor fit] | 
Cc1ccc2nc3c(cc2c1)c(NC(=O)c1cccnc1)nn3C | inconclusive: 31.6 µM [activator, partial curve, poor fit] | 
O=C(Nc1ccc2oc(-c3ccccc3F)nc2c1)c1ncn[nH]1 | active: 14.1 µM | 
CCOC(=O)c1c(NC(=O)c2c(C)noc2C)sc2c1CCCCC2 |  | inactive: 0.136%
COc1ccccc1CN1C(=O)CCC1(C)C(=O)NC1CCCCCC1 (configuration not stated) | inconclusive: 0.0045 µM [activator, full curve, poor fit] | 
CCOC(=O)N1CCN(c2c(F)cc3[nH]c(=S)[nH]c3c2Br)CC1 | inconclusive: 7.08 µM [activator, full curve, poor fit] | 
COc1cc(C(=O)Nc2ccc(S(=O)(=O)Nc3nccc(C)n3)cc2)cc(OC)c1OC | inconclusive: 15.8 µM [activator, single point] | 
COc1cc2[nH]c(-c3ccc(C)cc3)cc(=O)c2cc1OC | inconclusive: 17.8 µM [activator, single point] | 
Brc1ccc(/C=C/C=N/Nc2nc3ccccc3s2)cc1 |  | inactive: -17.6%
CC(/C=N/NC(=O)c1n[nH]c2c1CCC2)=C\c1ccccc1 | inconclusive: 2.24 µM [activator, partial curve] | 
CN1CCN(c2ccc(NC(=O)COc3ccccc3Cl)cc2)CC1 |  | inactive: -14.9%
Cc1ccc(OCC(=O)Nc2ccc3c(c2)OCO3)c([N+](=O)[O-])n1 | active: 20 µM | 
COC(=O)c1cc2ccsc2n1CC(=O)Nc1cc(C)cc(C)c1 | inconclusive: 35.5 µM [activator, single point] | 
O=C(CCS(=O)(=O)c1cccs1)Nc1ccc(C(=O)Nc2ccccc2F)cc1 | inconclusive: 20 µM [activator, single point] | 
Cc1ccc(NS(=O)(=O)c2ccc(Br)s2)cc1S(=O)(=O)N1CCOCC1 |  | inactive: -6.36%
O=C(Nc1sc2c(c1C(=O)NCc1ccco1)CCCC2)c1ccc2c(c1)OCO2 | inconclusive: 35.5 µM [activator, single point] | 
CCCCN(CCCC)CCNC(=O)c1cn(CC)c2ccc(S(=O)(=O)N(C)C3CCCCC3)cc2c1=O | inconclusive: 0.0079 µM [activator, full curve, poor fit] | 

Compound | Potency | activity change, positive = activation
Cc1cccc2nc(CSc3ccc(Cl)cc3)cn12 | active: 11.2 µM | 
CN1CCN(C(=O)c2ccc(COc3ccc(C(C)(C)C)cc3)o2)CC1 | inconclusive: 17.8 µM [activator, single point] | 
CC(C)CCNC(=O)C(=O)Nc1ccccc1 | inconclusive: 22.4 µM [activator, single point] | 
Cc1nn(Cc2ccccc2)c(Cl)c1C(=O)NC(C)(C)C |  | inactive: 0.099%
COc1ccc(-c2nnn(CC(=O)N(Cc3ccccc3Cl)C(C(=O)NCC3CCCO3)c3ccco3)n2)cc1OC (configuration not stated) | inconclusive: 25.1 µM [activator, single point] | 
COc1ccc(C2(O)CCN(C(=O)c3ccc4c(c3)OCO4)CC2)cc1 | inconclusive: 31.6 µM [activator, partial curve] | 
O=C(COC(=O)c1cccs1)NCCC1=CCCCC1 | inconclusive: 3.98 µM [activator, full curve, poor fit] | 
c1ccc(-c2ccc(-c3csnn3)cc2)cc1 | inconclusive: 2.24 µM [activator, full curve] | 
O=C(CSc1oc(-c2cccs2)nc1S(=O)(=O)c1ccccc1)NC1CCCCC1 | inconclusive: 0.0063 µM [activator, full curve, poor fit] | 
CCOC(=O)C1=C(O)/C(=C/c2ccccn2)SC1=Nc1ccc(Cl)cc1 |  | inactive: -26%
Brc1ccccc1OCCCn1cnc2ccccc21 | inconclusive: 31.6 µM [activator, single point] | 
CSc1ncccc1C(=O)OCC(=O)NC(N)=O |  | inactive: 7.18%
CCn1c(=O)[nH]c2cc(Cl)c(Cl)cc21 | inconclusive: 3.16 µM [activator, partial curve] | 
CC(=O)c1cnc(Nc2nc(C)c3ccccc3n2)nc1C | inconclusive: 1.26 µM [activator, full curve, poor fit] | 
CN(c1cccc(NC(=O)c2ccc(N(C)S(=O)(=O)c3ccccc3)cc2)c1)S(C)(=O)=O |  | inactive: -87%
CCn1nnc(NC(=O)c2ccccc2Br)n1 | inconclusive: 3.55 µM [activator, partial curve, poor fit] | 
COc1ccccc1/C=C/c1nc2ccccc2n1C(C)C | inconclusive: 17.8 µM [activator, single point] | 
COC(=O)c1ccc(C(=O)Nc2nnc(-c3cccnc3)o2)cc1 | inconclusive: 10 µM [activator, partial curve, poor fit] | 
COc1ccc(CNC(=O)Cc2c(C)c3cc4c(C)coc4c(C)c3oc2=O)cc1 |  | inactive: 6.7%
Brc1ccc(Nc2nc(-c3cccnc3)cs2)cc1 | active: 14.1 µM | 
COc1ccc(S(=O)(=O)N2CCN(c3cc(-c4ccccc4)nc4ncnn34)CC2)cc1 |  | inactive: -31%
O=c1oc(-c2cccs2)nc2scc(-c3cccs3)c12 | active: 11.2 µM | 
COc1ccc(NC(=O)c2nc3ccccc3s2)cc1 | inconclusive: 0.501 µM [activator, full curve] | 
COc1ccccc1Nc1nc(N)nc(CN2CCCCCC2)n1 | inconclusive: 8.91 µM [activator, partial curve] | 
CCC(C)(C)NC(=O)c1ccc2c(c1)S(=O)(=O)c1ccccc1C2=O |  | inactive: 6.35%
